Publication PMC4242493
The other results are listed elsewhere or left out. The list includes weakly bound sequences.

Target: MaxL homodimer (UniProt P61244)
Experiment: universal protein-binding microarray (PBM)
Conditions: PBS-based mixture, 10 nM His-tagged protein dimer, 2% milk, 200 ng/uL BSA, 50 ng/uL salmon testes DNA, 0.02% TX-100; detection with Alexa 488 anti-His …; high values mean tight binding; most listed sequences are background and not binding sites; double strand, one strand shown

UniProt P61244, sequence (P61244 whole entry): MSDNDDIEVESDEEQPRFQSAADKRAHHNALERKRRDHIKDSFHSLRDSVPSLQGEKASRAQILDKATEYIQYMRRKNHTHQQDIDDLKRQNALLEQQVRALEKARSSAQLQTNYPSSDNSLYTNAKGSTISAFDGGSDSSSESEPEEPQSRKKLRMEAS

Sequence	binding signal (normalized occupancy)
CCTTTCAA	0.078
ACTTCCAT	0.0785
ATCAACGC	0.077
GATAAAGC	0.0748
CAGTCGGA	0.0691
TCTTTACA	0.0746
GATAGAGA	0.0748
AGTAAGAT	0.077
TCCTGACA	0.076
CGAGTGGC	0.0717
ATGGTACA	0.0846
AGTCGTAA	0.0729
CTTTTAAC	0.0745
AGGTGCGG	0.0789
AAAAATGT	0.0782
AAAACAAG	0.0705
TATTGCAA	0.0707
CTATCCCC	0.0822
AACTCAAA	0.0727
ATGTAACC	0.076
GTGTGGAA	0.0875
ACATACGG	0.0807
GGCTCTCA	0.0759
CACGCGCC	0.116

Sequence	binding signal (normalized occupancy)
GACGAATC	0.0742
TTACGTAA	0.0786
AAGACGGA	0.0645
GCCAGACA	0.0735
AATGCTCA	0.0829
AGCAGCTC	0.0687
CGGGCAAG	0.0722
CCGGACTC	0.0654
AGCCTTCG	0.0682
GGTCACTA	0.0724
ACGAAGAG	0.0753
AGTGCCAG	0.0697
TCTCAAAA	0.0792
AGGTCATG	0.089
AAACCCTG	0.0707
AGATGCCT	0.0739
CCTAACCG	0.0736
AACGTGTC	0.101
GCAACAAC	0.0714
CATAGCTA	0.076
GACGGAGC	0.0654
GGCATCAA	0.0737
ATAAGGAG	0.0759
ACCCTGCA	0.0751

Sequence	binding signal (normalized occupancy)
CTGTCTCA	0.0747
CTTTGAAC	0.0689
GCCTGAAA	0.0701
AATGCAGG	0.08
CCTTGTTA	0.0737
ATGAGGAC	0.0862
GAATGCAA	0.0742
AATGGACC	0.073
ACTCATCT	0.078
AAAGCCAA	0.0666
AAATCTTA	0.075
AAAGTCGC	0.065
CCTGCGCA	0.0738
AAACTGGC	0.071
ATGACAAA	0.0782
ATTGTCAA	0.0786
CGCCCATC	0.0733
CACTGGGC	0.0746
AAGTAGGT	0.0741
ACCATTGG	0.07
AGCCCACC	0.0778
AGAACAAG	0.0731
ACCGAGCC	0.0667
CCCAACCA	0.0747

Sequence	binding signal (normalized occupancy)
GGGCACTA	0.075
AGCTTCAG	0.0661
CCCGCAGC	0.0632
GATAGTAC	0.073
ATCGGGCG	0.0738
GAGAATGC	0.0826
ATTGTTTG	0.073
GAATCCGC	0.0724
GCGAGTCA	0.0725
ATTGTCTG	0.0774
CCGTCAAG	0.0709
GTCCGCCA	0.0738
AGGCTCGA	0.0701
TAGGGCAA	0.069
AAAAATTG	0.0784
TACACAAA	0.0756
CCTCGTTC	0.0806
ACGATCTG	0.0791
CGAGTCCA	0.0775
GTCTAAAA	0.0747
ACATAGGG	0.0814
CCATGCAA	0.0895
